This passage reports activity change, negative = inhibition results from PubChem BioAssay AID1745853 (National Center for Advancing Translational Sciences (NCATS), 2022).

Holding throughout (assay): Primary Screen for Target Class Profiling of Small Molecule Inhibitors of Methyltransferases
In test [1] the target is Glycine N-methyltransferase (Homo sapiens) (UniProt Q14749). As to conditions: purified enzyme, MTase-Glo SAH luminescence; measured here: GNMT inhibition; at 40 µM; stronger effect = lower value. The source says:
(§1) PI: Matthew D. Hall Ph.D. and Quinlin M. Hanson Ph.D.
(§2) National Center for Advancing Translational Sciences (NCATS)
(§3) National Institute of Health (NIH), Rockville, MD
(§4) Target class profiling (TCP) is a chemical biology approach amenable to investigating understudied biological targets. TCP is achieved by developing a generalizable assay platform and applying it to screen a curated set of compound libraries against representative members of a target class. Small molecule methyltransferases (SMMTase) are a subclass of methyltransferase that act on metabolites to modulate signaling pathways, metabolize xenobiotics, or balance the available methyl pool. We screened four curated libraries totaling 27,574 unique compounds against the SMMTases nicotinamide N-methyltransferase (NNMT), phenylethanolamine N-methyltransferase (PNMT), histamine N-methyltransferase (HNMT), glycine N-methyltransferase (GNMT), catechol O-methyltransferase (COMT), and guanidinoacetate N-methyltransferase (GAMT). The data generated by this TCP can be leveraged for informed tool molecule development. For example, in the associated publication we identified a chemotype of HNMT-selective inhibitors. Additionally, we identified a putative SMMTase-selective inhibitor with potential as a tool molecule for studying broader methyltransferase biology.
(§5) High-through put screening assays were developed at the National Center for Advancing Translational Science (NCATS) for the enzymes NNMT, PNMT, HNMT, GNMT, COMT, and GAMT. Enzymatic activity was measured as a function of SAM cofactor conversion using the MTase Glo kit (Promega) for all enzymes. All assays were performed in 1536-well format with substrates and SAM concentrations at KM values. Enzyme concentration and assay timing were optimized for 10-20% SAM conversion. Initial screening of 27,574 compounds was done as single-point assays using the highest compound concentration (40 uM). […] These compounds were replated in 11-point dose response and assayed against NNMT, PNMT, HNMT, GNMT, COMT, GAMT, and a counter-assay. The IC50 and efficacy (maximal response) values were determined for each dose-response curve. These values are also accounted for in the area under the curve (AUC) values.
(§6) PROTOCOL TABLE (as described by Inglese J, Shamu CE and Guy RK. 2007)
(§7) SEQUENCE No. (e.g., 1, 2, 3, etc.); […] (e.g., Cells, Incubation, Reagent, etc.); VALUE; DESCRIPTION.
(§8) 1; Reagent; 2 uL; SMMTase Enzyme (2x) in reaction buffer, columns 1- 48.
(§9) 2; Reagent; 1 uL; SAM (4x) in reaction buffer, columns 1-48.
(§10) 3; Controls; 23 nL; DMSO in column 4; sinefungin in DMSO (0 uM - 40 uM) in 7-point 1:2 dilution series (n = 2) in column 2.
(§11) 4; Compounds; 23 nL; Columns 5-48.
(§12) 5; Reagent; 1 uL; Substrate (4x) in reaction buffer, columns 2-48.
(§13) 6; Time; 20-30 min; Incubation.
(§14) 7; Reagent; 1 uL; MTase-Glo reagent (5X), columns 1-48.
(§15) 8; Time; 30 min; Incubation.
(§16) 9; Reagent; 5 uL; MTase-Glo Detection reagent, columns 1-48.
(§17) 10; Time; 30 min; Incubation, luminescence evolution.
(§18) 11; Detection; Luminescence; ViewLux uHTS Microplate Imager (PerkinElmer).
(§19) NOTES (numbers refer to Sequence numbers above)
(§20) 1, 2, 5. White Medium Binding Greiner 1536-well plates (Cat #789175-F, Greiner Bio-One, Monroe, NC); Reaction buffer: 50 mM Tris, pH 8.0, 3 mM MgCl2, 1 mM EDTA, 50 mM NaCl, 1 mM DTT, and 0.1 mg/mL BSA. Evaporation was prevented by covering assay plates with metal lids containing holes to allow gas diffusion.
(§21) 1. Six SMMTase were profiled: HNMT, GNMT, PNMT, COMT, NNMT, GAMT
(§22) 5. The corresponding substrate was used for each enzyme: HNMT - 5.3 uM Histamine; GNMT - >500 uM Glycine; PNMT - 16.2 uM Norephinephrine; COMT - 13.7 uM Norephinephrine; NNMT - 3.8 uM Nicotinamide; GAMT - 2.5 uM Guanidinoacetate.6, 8, 10. Room temperature
(§23) 6. Final reaction conditions: 10 nM COMT, 5 uM SAM, 15 uM norepinephrine, 50 mM Tris, pH 8.0, 3 mM MgCl2, 1 mM EDTA, 50 mM NaCl, 1 mM DTT, and 0.1 mg/mL BSA; refer to tables 2 and S1 for specific timing.
8. […]

Test [2] concerns the target Guanidinoacetate N-methyltransferase (Homo sapiens) (UniProt Q14353). As to conditions: purified enzyme, MTase-Glo SAH luminescence; measured here: GAMT inhibition; at 40 µM; stronger effect = lower value.
Description: as §1, §2, §3, §4, §5, §6, §7, §8, §9, §10, §11, §12, §13, §14, §15, §16, §17, §18, §19, §20, §21, §22, §23
8. […]

Test [3] addresses Histamine N-methyltransferase (Homo sapiens) (UniProt P50135). Conditions: purified enzyme, MTase-Glo SAH luminescence; measured here: HNMT inhibition; at 40 µM; stronger effect = lower value.
Description: as §1, §2, §3, §4, §5, §6, §7, §8, §9, §10, §11, §12, §13, §14, §15, §16, §17, §18, §19, §20, §21, §22, §23
8. […]

The target of test [4] is Nicotinamide N-methyltransferase (Homo sapiens) (UniProt P40261). Conditions: purified enzyme, MTase-Glo SAH luminescence; measured here: NNMT inhibition; at 40 µM; stronger effect = lower value.
Description: as §1, §2, §3, §4, §5, §6, §7, §8, §9, §10, §11, §12, §13, §14, §15, §16, §17, §18, §19, §20, §21, §22, §23
8. […]

The target in test [5] is Phenylethanolamine N-methyltransferase (Homo sapiens) (UniProt P11086). Conditions: purified enzyme, MTase-Glo SAH luminescence; measured here: PNMT inhibition; at 40 µM; stronger effect = lower value.
Description: as §1, §2, §3, §4, §5, §6, §7, §8, §9, §10, §11, §12, §13, §14, §15, §16, §17, §18, §19, §20, §21, §22, §23
8. […]

The list shows a part of the results. The main result of the screen is listed elsewhere. These columns were measured beside it and carry no call.
% is scaled to controls: 0 for no effect and ±100 for the full control effect.

On to `CCOC(=O)c1cc2n(n1)CC(C)(C(=O)NC1CCCC1)N(Cc1ccc(CC)cc1)C2=O` (stereo not given), for which the activity change, negative = inhibition in test [1] was -2.44%; in test [2], 0%; in test [3], 5.89%; in test [4] it was -0.243%; in test [5], 1.98%.
`CC(C)NCC(O)COc1ccc(CC(N)=O)cc1` (stereo not given): the activity change, negative = inhibition in test [1] was 2.54%; in test [2], 5.1%; in test [3], 4.58%; in test [4], -7.11%; in test [5], 2.01%.
On to `CCCCNc1ncc(C(=O)NCc2ccc(-n3ccnc3)cc2)c(NC2CCC(O)CC2)n1` (stereo not given), for which the activity change, negative = inhibition in test [1] was -15.1%; in test [2], -10.3%; in test [3] it was -45.3%; in test [4], -64.5%; in test [5], -35.5%.
In the same order, the values of `CCNC(=O)[C@@H]1C[C@H](n2cc(CN(C)C(=O)c3cccc(C)c3C)nn2)CN1` are 0.019%, 0.836%, 0.07%, -0.42% and -12.2%.
In the same order, the values of `CN(Cc1ccccc1)C(=O)c1ncn2c1C(=O)N(C1CC1)C(C)(C(=O)NCc1ccccc1Cl)C2` (stereo not given) are -0.79%, 0%, 5.33%, 1.71% and 5.15%.
`C/C=C1\[C@H](O[C@@H]2O[C@H](CO)[C@@H](O)[C@H](O)[C@H]2O)OC=C(C(=O)OC)[C@H]1CC(=O)OC[C@H]1O[C@@H](OCCc2ccc(O)cc2)[C@H](O)[C@@H](O)[C@@H]1O`: the activity change, negative = inhibition is -2.74% in test [1]; -6.25% in test [2]; 4.61% in test [3]; -15.4% in test [4]; -4.56% in test [5].
The corresponding values for `CC(C)n1c(=O)c2ccc(C(=O)NC3CCCC3)cc2n2c(=O)[nH]nc12` are -7.74%, 3.13%, -2.14%, -4.52% and -12.1%.
The corresponding values for `CCCn1c(=O)c2ccc(C(=O)NCC(C)C)cc2n2c(=O)n(Cc3ccccc3F)nc12` are 3.71%, 1.29%, 7.65%, 0.965% and 3.57%.
The corresponding values for `CCc1ccc(CNC(=O)c2cc3n(n2)CC(C)(C(=O)NCc2ccc(F)cc2)N(C)C3=O)cc1` (stereo not given) are 0.403%, -2.37%, -6.83%, 3.2% and 0.901%.
As for `CC1(C)CC[C@]2(C(=O)O)CC[C@]3(C)C(=CCC4[C@@]5(C)CC[C@H](O[C@H]6O[C@H](C(=O)O)[C@@H](O)[C@H](O[C@@H]7O[C@H](CO)[C@H](O)[C@H](O)[C@H]7O)[C@H]6O)C(C)(C)C5CC[C@]43C)[C@@H]2C1` (stereo not given in full), the activity change, negative = inhibition in test [1] is -0.494%; in test [2], -2.14%; in test [3], 8.6%; in test [4] it was -13.8%; in test [5], -2.45%.
In the same order, the values of `O=C1N(Cc2cccc(F)c2F)CCCC1(O)CNCc1ccccc1` (stereo not given) are -6.85%, 0.069%, -1.76%, -4.22% and -2.94%.
`CC1CCCC(NC(=O)C2(C)Cn3c(nc4ccccc43)C(=O)N2Cc2cccc(Cl)c2)C1C` (stereo not given): the activity change, negative = inhibition was determined as 7.32% in test [1]; 0.607% in test [2]; 7.84% in test [3]; 8.55% in test [4]; 3.47% in test [5].
The corresponding values for `CCCn1c(=O)c2cc(Cl)ccc2n2c(SCC(=O)Nc3ccccc3C)nnc12` are -12%, 2.65%, 5.98%, -3.67% and 1.43%.
